Here are results for 31 molecules from publication PMC9911399, “Two distinct binding modes provide the RNA-binding protein RbFox with extraordinary sequence specificity”.

B1: GCGUUGC (DNA:RNA)
RNA: GGGAGACCGGAAUUCAGAUUGUCCGCGUUGCUUAAAUCCCGUCGUAGCCACCA
DNA 1: CAATCTGAATTCCGGTCTCCC
DNA 2: TGGTGGCTACGACGGGATT
B2: GUUCCCU (DNA:RNA)
RNA: B1 RNA with C26U, G27U, U28C, U29C, G30C, C31U
DNA 1: CAATCTGAATTCCGGTCTCCC
DNA 2: TGGTGGCTACGACGGGATT
B3: UACAAAU (DNA:RNA)
RNA: GGGAGACCGGAAUUCAGAUUGUCCUACAAAUUUAAAUCCCGUCGUAGCCACCA
DNA 1: CAATCTGAATTCCGGTCTCCC
DNA 2: TGGTGGCTACGACGGGATT
B4: GCAUACC (DNA:RNA)
RNA: B1 RNA with G27A, U29A, G30C
DNA 1: CAATCTGAATTCCGGTCTCCC
DNA 2: TGGTGGCTACGACGGGATT
B5: CUGGUUU (DNA:RNA)
RNA: B1 RNA with G25C, C26U, U28G, G30U, C31U
DNA 1: CAATCTGAATTCCGGTCTCCC
DNA 2: TGGTGGCTACGACGGGATT
B6: AACCGGU (DNA:RNA)
RNA: B3 RNA with U25A, A28C, A29G, A30G
DNA 1: CAATCTGAATTCCGGTCTCCC
DNA 2: TGGTGGCTACGACGGGATT
B7: AGUAACC (DNA:RNA)
RNA: B3 RNA with U25A, A26G, C27U, A30C, U31C
DNA 1: CAATCTGAATTCCGGTCTCCC
DNA 2: TGGTGGCTACGACGGGATT
B8: CAUCCUU (DNA:RNA)
RNA: B3 RNA with U25C, C27U, A28C, A29C, A30U
DNA 1: CAATCTGAATTCCGGTCTCCC
DNA 2: TGGTGGCTACGACGGGATT
B9: CAAUCCC (DNA:RNA)
RNA: B1 RNA with G25C, C26A, G27A, U29C, G30C
DNA 1: CAATCTGAATTCCGGTCTCCC
DNA 2: TGGTGGCTACGACGGGATT
B10: GGGUUAU (DNA:RNA)
RNA: B1 RNA with C26G, G30A, C31U
DNA 1: CAATCTGAATTCCGGTCTCCC
DNA 2: TGGTGGCTACGACGGGATT
B11: CAUCUCU (DNA:RNA)
RNA: B3 RNA with U25C, C27U, A28C, A29U, A30C
DNA 1: CAATCTGAATTCCGGTCTCCC
DNA 2: TGGTGGCTACGACGGGATT
B12: GCACACG (DNA:RNA)
RNA: B1 RNA with G27A, U28C, U29A, G30C, C31G
DNA 1: CAATCTGAATTCCGGTCTCCC
DNA 2: TGGTGGCTACGACGGGATT
B13: AGGAUAG (DNA:RNA)
RNA: B1 RNA with G25A, C26G, U28A, G30A, C31G
DNA 1: CAATCTGAATTCCGGTCTCCC
DNA 2: TGGTGGCTACGACGGGATT
B14: GUUAUAA (DNA:RNA)
RNA: B1 RNA with C26U, G27U, U28A, G30A, C31A
DNA 1: CAATCTGAATTCCGGTCTCCC
DNA 2: TGGTGGCTACGACGGGATT
B15: GUGGGUU (DNA:RNA)
RNA: B1 RNA with C26U, U28G, U29G, G30U, C31U
DNA 1: CAATCTGAATTCCGGTCTCCC
DNA 2: TGGTGGCTACGACGGGATT
B16: AUGCUCC (DNA:RNA)
RNA: B1 RNA with G25A, C26U, U28C, G30C
DNA 1: CAATCTGAATTCCGGTCTCCC
DNA 2: TGGTGGCTACGACGGGATT
B17: GUGGUUG (DNA:RNA)
RNA: B1 RNA with C26U, U28G, G30U, C31G
DNA 1: CAATCTGAATTCCGGTCTCCC
DNA 2: TGGTGGCTACGACGGGATT
B18: AGUGAGU (DNA:RNA)
RNA: B3 RNA with U25A, A26G, C27U, A28G, A30G
DNA 1: CAATCTGAATTCCGGTCTCCC
DNA 2: TGGTGGCTACGACGGGATT
B19: GCAGUCA (DNA:RNA)
RNA: B1 RNA with G27A, U28G, G30C, C31A
DNA 1: CAATCTGAATTCCGGTCTCCC
DNA 2: TGGTGGCTACGACGGGATT
B20: CUGGCAU (DNA:RNA)
RNA: B3 RNA with U25C, A26U, C27G, A28G, A29C
DNA 1: CAATCTGAATTCCGGTCTCCC
DNA 2: TGGTGGCTACGACGGGATT
B21: GGGAGAC (DNA:RNA)
RNA: B1 RNA with C26G, U28A, U29G, G30A
DNA 1: CAATCTGAATTCCGGTCTCCC
DNA 2: TGGTGGCTACGACGGGATT
B22: CCUAAGG (DNA:RNA)
RNA: B1 RNA with G25C, G27U, U28A, U29A, C31G
DNA 1: CAATCTGAATTCCGGTCTCCC
DNA 2: TGGTGGCTACGACGGGATT
B23: CAAAUAU (DNA:RNA)
RNA: B3 RNA with U25C, C27A, A29U
DNA 1: CAATCTGAATTCCGGTCTCCC
DNA 2: TGGTGGCTACGACGGGATT
B24: CGCAUUU (DNA:RNA)
RNA: B3 RNA with U25C, A26G, A29U, A30U
DNA 1: CAATCTGAATTCCGGTCTCCC
DNA 2: TGGTGGCTACGACGGGATT
B25: AUCUUCG (DNA:RNA)
RNA: B1 RNA with G25A, C26U, G27C, G30C, C31G
DNA 1: CAATCTGAATTCCGGTCTCCC
DNA 2: TGGTGGCTACGACGGGATT
B26: CCGUUUU (DNA:RNA)
RNA: B1 RNA with G25C, G30U, C31U
DNA 1: CAATCTGAATTCCGGTCTCCC
DNA 2: TGGTGGCTACGACGGGATT
B27: AGCAGGA (DNA:RNA)
RNA: B3 RNA with U25A, A26G, A29G, A30G, U31A
DNA 1: CAATCTGAATTCCGGTCTCCC
DNA 2: TGGTGGCTACGACGGGATT
B28: ACUGACG (DNA:RNA)
RNA: B1 RNA with G25A, G27U, U28G, U29A, G30C, C31G
DNA 1: CAATCTGAATTCCGGTCTCCC
DNA 2: TGGTGGCTACGACGGGATT
B29: UACACGG (DNA:RNA)
RNA: B3 RNA with A29C, A30G, U31G
DNA 1: CAATCTGAATTCCGGTCTCCC
DNA 2: TGGTGGCTACGACGGGATT
B30: CUCCGAU (DNA:RNA)
RNA: B3 RNA with U25C, A26U, A28C, A29G
DNA 1: CAATCTGAATTCCGGTCTCCC
DNA 2: TGGTGGCTACGACGGGATT
B31: UAGGAUA (DNA:RNA)
RNA: B3 RNA with C27G, A28G, A30U, U31A
DNA 1: CAATCTGAATTCCGGTCTCCC
DNA 2: TGGTGGCTACGACGGGATT

Positions count from the first letter of the chain named. The list shows a part of the results.

This assay deals with T1, RBFOX1 RRM RbFoxmut (Fox-RRM*) (Homo sapiens, UniProt Q9NWB1 109-208, R118D;E147R;N151S;E152T).
T1 sequence: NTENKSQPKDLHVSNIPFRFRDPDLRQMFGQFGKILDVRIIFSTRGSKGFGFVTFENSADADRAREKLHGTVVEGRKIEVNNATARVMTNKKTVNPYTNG
Briefly: EMSA; HiTS-Eq, 1 nM pool, 10 min; buffer printed only for the single-RNA assays: 10 mM Tris pH 7.5, 150 mM NaCl, 3.4 mM EDTA, 0.001% NP-40, 30 C. The note with it: tags: His6 N-terminal (pET28a); label: 5' 32P. A digest of the protocol:
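Purified wild-type or mutant RbFox RRM at increasing concentrations was equilibrated with 1 nM of 5′-radiolabelled RNA carrying 7 randomized nucleotides for 10 min in 50 µL. Unbound RNA was separated by 8% native PAGE and sequenced. Relative association constants came from read-count changes of each RNA species compared with the control reaction, normalised to the cognate motif.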
Background: In EMSA bound probe runs differently from free probe, usually more slowly.
For B1, the binding signal was 0.0929 KA relative to UGCAUGU.
With B2, the binding signal is 0.0477 KA relative to UGCAUGU.
As for B3, the binding signal was 0.0515 KA relative to UGCAUGU.
As to B4, the binding signal was 0.0634 KA relative to UGCAUGU.
The result for B5 reads 0.087 KA relative to UGCAUGU; that for B6, 0.0772 KA relative to UGCAUGU; that for B7, 0.0751 KA relative to UGCAUGU.
Take B8: the binding signal was 0.11 KA relative to UGCAUGU.
The result for B9 reads 0.0667 KA relative to UGCAUGU; that for B10, 0.112 KA relative to UGCAUGU; that for B11, 0.0757 KA relative to UGCAUGU.
Take B12: the binding signal was 0.129 KA relative to UGCAUGU.
Turning to B13, the binding signal was 0.119 KA relative to UGCAUGU.
Take B14: the binding signal is 0.17 KA relative to UGCAUGU.
On to B15, for which the binding signal was 0.132 KA relative to UGCAUGU.
Regarding B16, the binding signal was 0.0752 KA relative to UGCAUGU.
On to B17, for which the binding signal was 0.737 KA relative to UGCAUGU.
Under B18 stands 0.179 KA relative to UGCAUGU.
On to B19, for which the binding signal was 0.062 KA relative to UGCAUGU.
Under B20 stands 0.123 KA relative to UGCAUGU.
For the molecule B21, the binding signal was 0.0799 KA relative to UGCAUGU.
As for B22, the binding signal is 0.0711 KA relative to UGCAUGU.
Turning to B23, the binding signal is 0.0969 KA relative to UGCAUGU.
For B24, the binding signal was 0.133 KA relative to UGCAUGU.
Take B25: the binding signal was 0.104 KA relative to UGCAUGU.
Under B26 stands 0.067 KA relative to UGCAUGU; under B27, 0.0735 KA relative to UGCAUGU.
With B28, the binding signal was 0.0933 KA relative to UGCAUGU.
The result for B29 reads 0.0772 KA relative to UGCAUGU; that for B30, 0.0893 KA relative to UGCAUGU.
The result for B31 reads 0.0533 KA relative to UGCAUGU.
